Data reported in publication PMC8560763, “Roles of metal ions in the selective inhibition of oncogenic variants of isocitrate dehydrogenase 1” (Communications Biology, 2021).
Several values for one entry are separate records, joined by “and”; a condition that tells them apart may be missing. Identical values can stand only once.

Experiments:
[1] = tested on: R132H IDH1; conditions: cited from earlier work; for IC50: read-out: half-maximal inhibitory concentration (IC50s)
[2] = molecular target: T1, R132H IDH1 (Homo sapiens, UniProt O75874, R132H); test: Absorbance assay: effect of metal ions on catalysis and inhibition of R132H IDH1; assay type: biochemical; conditions: for inhibition by metal ion: R132H IDH1, metal ions 10 mM in the presence of 10 mM Mg^2+
T1 construct: made in house; host or cells: Escherichia coli BL21(DE3) pLyS
T1 sequence (O75874 2-414 R132H): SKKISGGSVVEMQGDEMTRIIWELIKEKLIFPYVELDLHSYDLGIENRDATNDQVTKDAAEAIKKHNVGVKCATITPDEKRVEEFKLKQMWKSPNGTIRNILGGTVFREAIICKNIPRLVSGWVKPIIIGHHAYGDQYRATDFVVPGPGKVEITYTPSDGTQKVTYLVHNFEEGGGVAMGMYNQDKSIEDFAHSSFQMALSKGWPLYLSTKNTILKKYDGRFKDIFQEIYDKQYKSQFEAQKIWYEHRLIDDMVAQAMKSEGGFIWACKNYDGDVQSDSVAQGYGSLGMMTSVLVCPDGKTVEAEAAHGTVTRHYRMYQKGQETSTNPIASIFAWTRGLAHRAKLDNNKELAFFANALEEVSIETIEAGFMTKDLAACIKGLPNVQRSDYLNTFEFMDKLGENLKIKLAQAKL

[3] = molecular target: T1, R132H IDH1; test: Absorbance assay: kinetics of oxidative reaction (isocitrate to 2OG) by R132H IDH1; assay type: biochemical; conditions: for Velocity: Fig. S2i
[4] = molecular target: T1, R132H IDH1; test: Absorbance assay: kinetics of reductive reaction (2OG to 2HG) by R132H IDH1; assay type: biochemical; conditions: for Km: read-out: KM
[5] = molecular target: T1, R132H IDH1; test: Differential scanning fluorimetry (DSF) thermal shift, R132H IDH1; assay type: binding; conditions: R132H IDH1, divalent metal ions (5 mM), 50 mM Tris-HCl, pH 7.5
[6] = R132H IDH1, oxidative reaction with Mg^2+ (10 mM MgCl2)
[7] = R132H IDH1, reductive reaction (2OG to 2HG) with Mg^2+ (10 mM MgCl2)

## C[C@H]1C[C@@H](n2c(Nc3ccc(OC(F)(F)F)cc3)nc3cc(CCC(=O)O)ccc32)CC(C)(C)C1 [BAY-1436032]
[1]
  IC50: < 100 nM

## [Ba+2].[Cl-].[Cl-] [Ba^2+, BaCl2]
[2]
  inhibition by metal ion: inhibiting

## [Cl][Cd][Cl] [Cd^2+, CdCl2]
[2]
  inhibition by metal ion: inhibitory

## [Cl-].[Cl-].[Co+2] [Co^2+, CoCl2]
[2]
  inhibition by metal ion: inhibitory

## C[C@H](O)c1cccc(NC(=O)c2nn(Cc3ccc(F)cc3)c3c2CN(C(=O)c2ccc[nH]2)C[C@H]3C)c1 [GSK321]
[1]
  mode of inhibition: competitive with respect to the substrate 2OG, and noncompetitive with respect to NADPH
  IC50: < 100 nM

## Cc1ccccc1C(C(=O)NC1CCCC1)N(C(=O)Cn1cnc2ccccc21)c1cccc(F)c1 (centres unmarked) [ML309]
[1]
  mode of inhibition: competitive with 2OG
  IC50: < 100 nM

## [Cl-].[Cl-].[Mg+2] [MgCl2]
[3]; [MgCl2] 15.625 μM
  Velocity: 0.005659 µM/s and 0.007502 µM/s and 0.009476 µM/s
[3]; [MgCl2] 62.5 μM
  Velocity: 0.009607 µM/s and 0.008554 µM/s and 0.01119 µM/s
[3]; [MgCl2] 250 μM
  Velocity: 0.03093 µM/s and 0.02922 µM/s and 0.02908 µM/s
[3]; [MgCl2] 500 μM
  Velocity: 0.03027 µM/s and 0.03922 µM/s and 0.03685 µM/s
[3]; [MgCl2] 1000 μM
  Velocity: 0.0404 µM/s and 0.0408 µM/s and 0.03672 µM/s
[3]; [MgCl2] 2000 μM
  Velocity: 0.04054 µM/s and 0.04211 µM/s and 0.03553 µM/s
[3]; R132H IDH1, oxidative reaction with Mg^2+
  kcat: 0.10 ± 0.01 s⁻¹
[3]; [6]
  Km: 171 ± 23 µM
  Vmax: 45 ± 2 nM/s
[4]; 150 mM NaCl
  fold higher KM, R132H IDH1 2OG reduction vs wt IDH1 isocitrate oxidation: 70 fold
[4]; Fig. S2l, [MgCl2] 781.25 μM
  Velocity: 0.01632 µM/s and 0.01228 µM/s and 0.02281 µM/s
[4]; Fig. S2l, [MgCl2] 1562.5 μM
  Velocity: 0.06984 µM/s and 0.05931 µM/s and 0.06826 µM/s
[4]; Fig. S2l, [MgCl2] 3125 μM
  Velocity: 0.1048 µM/s and 0.09458 µM/s and 0.13 µM/s
[4]; Fig. S2l, [MgCl2] 6250 μM
  Velocity: 0.1146 µM/s and 0.1423 µM/s and 0.1156 µM/s
[4]; Fig. S2l, [MgCl2] 25000 μM
  Velocity: 0.1986 µM/s and 0.1907 µM/s
[4]; Fig. S2l, [MgCl2] 50000 μM
  Velocity: 0.1811 µM/s and 0.2269 µM/s and 0.2123 µM/s
[4]; Fig. S2m, [MgCl2] 390.625 μM
  Velocity: 0.02492 µM/s and 0.01983 µM/s and 0.03194 µM/s
[4]; Fig. S2m, [MgCl2] 781.25 μM
  Velocity: 0.01983 µM/s
[4]; [7]
  Vmax: 224 ± 10 nM/s
  Km: 4.4 mM
[4]; R132H IDH1 catalysed 2OG reduction, in the presence of 150 mM NaCl
  Km: 6.7 mM
[4]; no NaCl
  fold higher apparent KM, R132H IDH1 2OG reduction vs wt IDH1 isocitrate oxidation: ~ 120 fold
[2]; R132H IDH1, metal ions 10 mM
  effect of metal ion on catalysis: promoted
[5]
  thermal shift (shift in Tm): destabilise
